Among all 310,000 compounds or so, about 2,200 (0.71%) showed an effect of 50% or more. The effect is printed as a negative number. The list shows a part of the results.
molecular target: human ether-à-go-go-related gene (hERG) potassium channel (human, UniProt Q12809); test: primary screen, population patch clamp on CHO cells stably expressing hERG
Sequence (Q12809 whole entry, looked up): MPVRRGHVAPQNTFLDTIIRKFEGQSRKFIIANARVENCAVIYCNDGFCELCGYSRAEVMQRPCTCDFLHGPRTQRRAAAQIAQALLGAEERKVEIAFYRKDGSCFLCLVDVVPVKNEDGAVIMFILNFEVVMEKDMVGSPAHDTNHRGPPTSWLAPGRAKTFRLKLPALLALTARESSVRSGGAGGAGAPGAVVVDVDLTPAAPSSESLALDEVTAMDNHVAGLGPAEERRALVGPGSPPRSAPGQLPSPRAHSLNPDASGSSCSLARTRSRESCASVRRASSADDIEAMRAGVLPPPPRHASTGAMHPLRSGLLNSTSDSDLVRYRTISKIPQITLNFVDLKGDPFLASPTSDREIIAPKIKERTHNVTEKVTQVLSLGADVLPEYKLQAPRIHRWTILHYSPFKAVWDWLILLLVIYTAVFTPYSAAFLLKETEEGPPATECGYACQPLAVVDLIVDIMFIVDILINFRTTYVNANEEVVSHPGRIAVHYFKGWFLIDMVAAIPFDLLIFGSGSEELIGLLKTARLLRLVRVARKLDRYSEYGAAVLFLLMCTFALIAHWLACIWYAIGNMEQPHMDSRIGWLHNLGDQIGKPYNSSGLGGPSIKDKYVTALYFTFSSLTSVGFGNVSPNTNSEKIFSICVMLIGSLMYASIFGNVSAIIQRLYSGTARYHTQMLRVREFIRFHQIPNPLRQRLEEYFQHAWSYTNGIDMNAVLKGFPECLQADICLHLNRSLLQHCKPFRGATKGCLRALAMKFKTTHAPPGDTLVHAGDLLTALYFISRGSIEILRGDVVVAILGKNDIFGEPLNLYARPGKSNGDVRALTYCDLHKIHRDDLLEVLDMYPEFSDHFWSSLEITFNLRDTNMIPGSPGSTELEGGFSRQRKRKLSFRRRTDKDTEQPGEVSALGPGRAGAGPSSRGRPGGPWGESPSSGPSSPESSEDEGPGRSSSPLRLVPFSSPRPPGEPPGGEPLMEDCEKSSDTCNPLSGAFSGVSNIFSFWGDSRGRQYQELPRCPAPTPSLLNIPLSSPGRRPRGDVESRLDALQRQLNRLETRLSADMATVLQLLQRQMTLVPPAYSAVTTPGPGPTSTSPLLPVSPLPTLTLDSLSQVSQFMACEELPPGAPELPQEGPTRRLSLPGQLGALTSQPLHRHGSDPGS

SMILES	hERG current change (%, negative = inhibition) at 1uM
CC(C)(C)OC(=O)N/N=C/c1cccc([N+](=O)[O-])c1	11.1%
Clc1cc(Br)ccc1OCCCNCc1ccccc1.O=C(O)C(=O)O	8.16%
COc1cc(C)c(Cl)cc1S(=O)(=O)n1ccnc1	7.84%
CCC(CC)C(=O)Nc1nnc(S(=O)(=O)N2CCc3ccccc32)s1	8.76%
COc1cc(CC(=O)OCC(=O)N2CC(C)CC(C)C2)cc(OC)c1OC (centres unmarked)	23.9%
Cc1ccc2c(c1)CC1(CN2C)C(=O)NC(=O)N(C(C)C)C1=O (centres unmarked)	19.3%
CCN(CC)c1nc(Nc2ccccc2)nc(Oc2ccc(=O)[nH]n2)n1	-4.59%
O=C(CN1C(=O)NC2(CCCCC2)C1=O)N1CCN(S(=O)(=O)c2ccc(F)cc2)CC1	13.1%
O=C(NCCc1ccccc1)C1=CCN(S(=O)(=O)c2ccccc2)CC1	14.8%
CCOC(=O)C1C2C=CC3(CN(c4cccc(Cl)c4)C(=O)C13)O2 (centres unmarked)	12.3%
COc1ccc(CNC(=O)c2ccncc2)cc1	11.6%
CCOc1ccc2c(c1)c(=O)c(S(=O)(=O)c1ccc(CC)cc1)cn2C	20.8%
CCCCC(c1nnnn1CC1CCCO1)N1CCN(Cc2ccccc2)CC1.Cl (centres unmarked)	5.35%
O=C(N=C1SC2CS(=O)(=O)CC2N1c1ccccc1)c1cccc([N+](=O)[O-])c1 (centres unmarked)	9.3%
O=C(N/N=C/c1ccc(O)cc1)c1cc[n+](Cc2ccccc2)cc1.[Cl-]	7.47%
Cc1ccc(NC(=O)CS(=O)c2ccccc2N)c(C)c1 (centres unmarked)	30.5%
COc1ccccc1N1CCN(C(=O)c2ccc(-c3nc4ccccc4s3)o2)CC1	8.11%
COc1ccccc1C(=O)N/C(=C\c1ccc(Br)cc1)C(=O)NCCC(=O)O	10.6%
CCOc1ccc(C(=O)N/N=C/c2ccc(-c3ccc(S(=O)(=O)Nc4ncccn4)cc3)o2)cc1	19.7%

SMILES	hERG current change (%, negative = inhibition) at 1uM
Cc1ccc(NS(=O)(=O)c2ccc3c(c2)CCC(=O)N3)cc1C	11.2%
COC(=O)c1ccccc1Sc1snnc1C	14.4%
COc1ccc(OCc2cc(C(=O)NC3CCOC(C)(C)C3)no2)c2ccccc12 (centres unmarked)	14.7%
O=C(COc1ccc(S(=O)(=O)N2CCOCC2)cc1)N1CCc2ccccc2C1	-23.7%
COc1nc(-c2ccc(C)cc2)ccc1-c1noc(-c2cccnc2)n1	12%
Cc1nn(C)c(C)c1S(=O)(=O)NCc1cccs1	9.59%
CCOC(=O)c1c(C)oc2cc(Cl)c(O)c(CN(C)C)c12	8.79%
COCCN(CCOC)S(=O)(=O)c1ccc(C(=O)NCCCN2CCOCC2)cc1	14.8%
CCCCCOC(=O)C1=C(C)NC(=O)NC1c1ccc2c(c1)OCO2 (centres unmarked)	15.1%
O=C(NCCNc1ccccc1[N+](=O)[O-])c1ccccc1F	10.4%
Cc1cccc2sc(NC(=O)CN3C(=O)c4ccccc4C3=O)nc12	13.7%
COc1cccc(NC(=S)NC2CC3CCCC(C2)N3CC(C)C)c1 (centres unmarked)	-8.61%
Cc1cc(CN2CCC(n3nccc3NC(=O)c3ccccc3C)CC2)n[nH]1	-7.51%
CC(C)NC(=O)C(=O)NC1CCCCCC1	-5.48%
CCCCn1c(=O)c(F)cn(Cc2ccc(OC)c([N+](=O)[O-])c2)c1=O	1.43%
N#Cc1c(SCC(N)=O)nsc1SCc1ccccc1Cl	10.6%
Cc1cc2nn(-c3ccc(Cl)cc3)nc2cc1N	14%
COc1ccc(NC(=O)COC(=O)COc2ccc(Br)cc2)cc1	19.3%
O=S(=O)(Cc1ccc(Cl)cc1)N1CCCCCC1	8.21%

SMILES	hERG current change (%, negative = inhibition) at 1uM
CC(C)Oc1ccc(C(CC(=O)O)NC(=O)Cc2ccc(Cl)cc2)cc1 (centres unmarked)	8.96%
CCC1CCCCN1CCCNC(=O)c1cn(CC)c2ccc(S(=O)(=O)N(C)C3CCCCC3)cc2c1=O (centres unmarked)	-75.5%
CC(=O)c1csc(-c2cccc(-c3nc4ccc(Cl)cn4c3NC3CCCCC3)c2)c1.O=C(O)C(F)(F)F	21.4%
c1csc(C2C3=C(Nc4ncnn42)c2ccccc2OC3)c1 (centres unmarked)	17.9%
Cc1cc2nc(-c3ccc(NC(=O)c4cccnc4)cc3)oc2cc1C	12%
CC(=O)NC(C(=O)c1ccccc1)N1CCCCC1 (centres unmarked)	4.13%
COC(=O)c1ccc(N2CCN(C)CC2)c(NC(=O)COc2ccccc2Cl)c1	11.8%
CC1=NN(c2ccc(C(=O)OC(C)C)cc2)C(=O)/C1=C\C=C\c1ccco1	7.33%
COCCn1cnc2c(c1=O)c1nc3ccccc3nc1n2/N=C/c1cccc(OC)c1	6.83%
Cc1cccc(NC(=O)Nc2ccc(F)cc2)n1	11.2%
CCNc1nc(NC(C)C)nc(N2CC(=O)N(CC(=O)OCC)C2=N)n1	-0.616%
CCOc1cc(/C=C(/C#N)c2nc3ccccc3[nH]2)ccc1Oc1ccc([N+](=O)[O-])cn1	8.93%
CCc1cccc(NC(=O)CN(C)S(=O)(=O)c2cnc[nH]2)c1	15.9%
CCOC(=O)N1CCC(N(CCOC)C(=O)Nc2ccc(Cl)c(Cl)c2)CC1	-4.37%
CCCCCCOC(=O)C(C#N)c1nc2ccccc2nc1N1CCOCC1 (centres unmarked)	2.31%
COc1ccc(OCC(O)Cn2c(Br)nc3c2c(=O)[nH]c(=O)n3C)cc1 (centres unmarked)	4.22%
Cn1nnnc1SCC(=O)Nc1cc(C(=O)O)cc(C(=O)O)c1	3.9%
CCOC(=O)c1nn(-c2c(C)n(C)n(-c3ccccc3)c2=O)cc1O	17.6%
